PubChem BioAssay AID1159614 (National Center for Advancing Translational Sciences (NCATS), 2016)
The campaign covered roughly 45,000 compounds. About 65 (0.1%) were called active. The call rests on the fitted dose curve; in most records, active means well fitted activation curve with a large enough effect; inconclusive means small, poorly fitted or top-dose-only effect; inactive means no such curve, though single readings can be large or run the other way. The list shows a part of the results.

molecular target: Galactocerebrosidase (Homo sapiens) (UniProt P54803); assay: A Novel Cell-Based Assay to Identify Small Molecules for B -Galactocerebrosidase; settings: 145M-Twi-hGALC-G270D cells (Twitcher mouse brain line with human GALC G270D), HMU-beta-Gal fluorescence, 48 h; series mostly up to 57.5 µM; activation: at the top concentration; further: 0% is about no effect; nearly all actives have a fitted effect of over 65% in size
Sequence of UniProt P54803 (P54803 whole entry, looked up): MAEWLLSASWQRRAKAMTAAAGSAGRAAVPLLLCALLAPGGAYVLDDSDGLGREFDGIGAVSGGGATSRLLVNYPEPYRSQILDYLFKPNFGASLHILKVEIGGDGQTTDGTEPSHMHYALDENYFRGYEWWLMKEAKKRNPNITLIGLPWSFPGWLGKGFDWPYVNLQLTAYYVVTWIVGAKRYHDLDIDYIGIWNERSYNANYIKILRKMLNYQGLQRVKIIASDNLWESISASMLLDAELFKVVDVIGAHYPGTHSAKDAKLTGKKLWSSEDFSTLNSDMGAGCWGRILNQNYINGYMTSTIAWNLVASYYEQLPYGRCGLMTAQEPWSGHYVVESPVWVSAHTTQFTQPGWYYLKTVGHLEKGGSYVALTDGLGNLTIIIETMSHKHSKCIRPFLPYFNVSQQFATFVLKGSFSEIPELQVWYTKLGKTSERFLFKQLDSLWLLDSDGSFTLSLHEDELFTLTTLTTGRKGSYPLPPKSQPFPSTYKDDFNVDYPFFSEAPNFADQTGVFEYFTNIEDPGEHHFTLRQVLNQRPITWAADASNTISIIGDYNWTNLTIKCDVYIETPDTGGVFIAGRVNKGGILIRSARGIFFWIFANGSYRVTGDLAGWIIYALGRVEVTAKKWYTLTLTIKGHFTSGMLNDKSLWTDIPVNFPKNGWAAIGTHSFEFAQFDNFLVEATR
In short: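 Mutant human GALC (G270D), stably expressed in a Twitcher mouse brain cell line lacking endogenous GALC, is measured in live-treated cells via 6-hexadecanoylamino-4-methylumbelliferyl-β-galactoside hydrolysis (0.1 mM final, pH 5.2) with fluorescent detection.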

Row | Structure (SMILES) | activation
1 | COc1cc2ccccc2cc1C(=O)Nc1cccc(-c2nc3ccccc3o2)c1 | inactive: -6.16%
2 | COc1ccc(N2CCN(C(=O)c3cn(C)c4ccc(S(=O)(=O)N(C)C5CCCCC5)cc4c3=O)CC2)cc1 | inactive: -7.31%
3 | CC1=C(C(=O)Nc2ccc(C)cc2Cl)C2(CCCCC2)OC1=O | inactive: -21.7%
4 | COc1cc(-c2nc3ccc(Cl)cn3c2Nc2ccc3c(c2)OCO3)ccc1O | inactive: -7.85%
5 | Cn1cc(-c2cc3n(n2)CCC(=O)N3CCCC(=O)Nc2ccccc2Cl)c2ccccc21 | inactive: -16.4%
6 | Nc1nn(-c2ccccc2)nc1C(=O)OCc1ccccc1Br | inactive: -7.97%
7 | Cc1ccccc1S(=O)(=O)Cc1ccc(C(=O)NCc2ccccc2Cl)o1 | inactive: -2.57%
8 | Cc1ccc(NC(=O)c2cc(CN3CCOCC3)on2)cc1Cl | inactive: -11.8%
9 | COc1ccccc1N1CCN(CCCNc2cc(=O)n(C)c(=O)n2C)CC1 | inactive: -5.14%
10 | CCc1ccccc1NC(=O)c1cc2sc(Cl)cc2n1CC | inactive: -23.7%
11 | CCOC(=O)c1c(C)[nH]c(C)c1S(=O)(=O)NCC(=O)Nc1ccc(CC)cc1 | inactive: -10.2%
12 | O=C(c1cccs1)c1cn(CCOc2ccc(F)cc2)c2ccccc12 | inactive: -29.9%
13 | COc1ccc2c(c1)CCc1c(C(=O)Nc3c(C)nn(Cc4c(Cl)cccc4Cl)c3C)noc1-2 | inactive: -5.98%
14 | O=C(Cn1cnc2onc(-c3ccc(F)cc3)c2c1=O)N1CCN(c2ccccc2F)CC1 | inactive: -20.3%
15 | O=C(O)Cc1sc(Nc2ccc(C(=O)O)cc2)nc1-c1ccccc1 | inactive: -16%
16 | CCOC(=O)c1noc2ncn(CC(=O)Nc3cc(Cl)ccc3OC)c(=O)c12 | inactive: -17.1%
17 | Cc1cc(Br)ccc1NC(=O)c1coc(=O)c2ccccc12 | inactive: -9.85%
18 | O=C(Nc1ccc(Cl)c(Cl)c1)c1cc(S(=O)(=O)N2CCN(c3cccc(Cl)c3)CC2)ccc1F | inactive: -9.28%
19 | Cc1oc2ncn(CC(C)C)c(=O)c2c1C(=O)Nc1cccc(C(F)(F)F)c1 | inactive: -12%
20 | Cc1ccc(CNC(=O)CN(C)S(=O)(=O)c2ccc(Br)s2)cc1 | inactive: -12.9%
21 | CC(C)c1ccccc1NC(=O)CSc1nnc(COc2ccccc2)o1 | inactive: -17.5%

Row | Structure (SMILES) | activation
22 | CCOc1ccccc1CNC(=O)CCCN1C(=O)COc2ccc(C)cc21 | inactive: -19%
23 | COc1ccc(-c2cn(-c3ccc(C)cc3)c(S(=O)(=O)CC(=O)Nc3ccccc3)n2)cc1 | inactive: 0.102%
24 | CCCOc1ccc(C(=O)NCC(c2ccc(OC)cc2)N2CCCCC2)cc1 (configuration not stated) | inactive: -31%
25 | CC(C)NC(=O)Cn1ccc2cc(S(=O)(=O)N3CCCCCC3)ccc21 | inactive: -8.12%
26 | CCn1c(=O)c2sccc2n2c(CCC(=O)N3CCN(c4ccccc4OC)CC3)nnc12 | inactive: 8.37%
27 | O=C(NCCCCc1ccccc1)c1nn(-c2ccccc2F)nc1CO | inactive: -7.47%
28 | O=C(c1ccc(CS(=O)c2ccccc2Cl)o1)N1CCN(c2cccc(C(F)(F)F)c2)CC1 (configuration not stated) | inactive: -1.87%
29 | Cc1nn(CCC(=O)NCc2cccc(Br)c2)c(=O)c2nn(-c3ccccc3)c(C)c12 | inactive: -14.4%
30 | CC(C)OCCCn1c(SCC(N)=O)nc2c(sc3ccccc32)c1=O | inactive: -3.24%
31 | COc1ccc(-c2nnc(SCC(=O)Nc3ccccc3C)o2)cc1OC | inactive: -12.4%
32 | O=S(=O)(c1ccccc1)c1nc(-c2cccs2)oc1N1CCCCC1 | inactive: -24.3%
33 | CC(NC(=O)c1ccc(CSc2nc3ccncc3n2Cc2ccc(F)cc2)cc1)c1ccccc1 (configuration not stated) | inactive: -8.28%
34 | Cc1cccc(OCCCSc2nc(-c3ccc(C(C)(C)C)cc3)nc3cc(=O)[nH]n23)c1C | inactive: -8.43%
35 | COCCNC(=O)c1ccc2c(c1)N(Cc1ccc(C(F)(F)F)cc1)C(=O)c1ccccc1S2 | inactive: -14.6%
36 | Cc1cccc(-n2c(=O)c3c(c4cc(C)ccc4n3C)n(CC(=O)Nc3ccccc3Cl)c2=O)c1 | inactive: 5.39%
37 | CCCCCn1c(=O)[nH]c2cc(C(=O)NCc3ccc(F)cc3)ccc2c1=O | inactive: -8.39%
38 | COC(=O)c1ccc(NC(=O)CSc2nc3c(c(=O)n(C)c(=O)n3C)n2Cc2ccccc2)cc1 | inactive: -13.7%
39 | COc1ccc(C(=O)NCc2nnc(SCC(=O)Nc3ccc(F)cc3)n2-c2ccccc2)cc1 | inactive: -11%
40 | Cc1ccc(NC(=O)Cn2cnc3c(oc4ccccc43)c2=O)cc1 | inactive: -8.91%
41 | Cc1ccc(C(=O)c2oc3ccccc3c2NC(=O)COc2ccc(C(C)(C)C)cc2)cc1 | inactive: -5.41%
42 | Cc1ccc(COc2cccc3cc(-c4noc(-c5ccc(C)cc5)n4)c(=O)oc23)cc1 | inactive: -6.5%

Row | Structure (SMILES) | activation
43 | CC(C)C(=O)c1cc2c(cc1NC(=O)c1ccccc1F)OCCO2 | inactive: -14.6%
44 | Cc1cccc(-n2ncc(C(=O)Nc3ccc4c(c3)OCO4)c2C2CCN(C(=O)OC(C)(C)C)CC2)c1 | inactive: -4.31%
45 | COc1ccc(Cl)cc1NC(=O)c1c(NCc2cccs2)sc2c1CCCC2 | inactive: -23.9%
46 | Oc1ccc(NCc2ccccc2OCc2ccccc2Cl)cc1 | inactive: -8.53%
47 | CN(C)c1ccc(NC(=O)CSC2=Nc3ccccc3C3=NC(CC(=O)NCc4ccc5c(c4)OCO5)C(=O)N23)cc1 (configuration not stated) | inactive: -5.39%
48 | Cc1ccc(S(=O)(=O)Nc2c(C)nc3nc(C)[nH]n3c2=O)c(C)c1 | inactive: -1.72%
49 | COc1ccccc1Cc1nc2ccccc2nc1SCC(=O)N1CCCc2ccccc21 | inactive: -3.73%
50 | Cc1ccccc1-c1noc(-c2cc(C(C)C)[nH]n2)n1 | inactive: -15.3%
51 | CC(=O)N1CCc2cc(S(=O)(=O)CCC(=O)N3CCN(c4ccccc4F)CC3)ccc21 | inactive: 7.43%
52 | Cc1cc(Nc2ccc(Cl)cc2)n2cnnc2n1 | inactive: -14%
53 | COc1ccc(-c2nnc(SCC(=O)c3ccc([N+](=O)[O-])cc3)o2)cc1OC | inactive: -11.7%
54 | Cn1nc(-c2ccc(C(=O)Nc3ccc(OC(F)(F)F)cc3)cc2)c2ccccc2c1=O | inactive: -30.4%
55 | CCN(CC)S(=O)(=O)c1ccc(C(=O)O)cc1 | inactive: -10.7%
56 | CCOc1ccccc1N1CC(c2nc3ccccc3n2CCOc2ccccc2OC)CC1=O (configuration not stated) | inactive: 3.8%
57 | COc1ccc2c(c1)Cc1sc(NC(=O)c3ccc(Cl)cc3)nc1-2 | inactive: -9.19%
58 | Cc1cccn2c(=O)c3cc(C(=O)NC(C)c4ccccc4)c(=N)n(CCOCCO)c3nc12 (configuration not stated) | inactive: -8.92%
59 | O=C(NCc1ccccc1Cl)C(=O)NCC(c1cccs1)S(=O)(=O)c1ccccc1 (configuration not stated) | inactive: 4.02%
60 | N#C/C(=C\c1ccc(-c2ccc(Cl)c(C(=O)O)c2)o1)c1nc2ccccc2[nH]1 | inactive: -23.9%
61 | Cc1ccc(-n2c(SCc3ccccc3C)nc3[nH]ncc3c2=O)cc1C | inactive: -2.25%
62 | CCOc1ccc(N(C(=O)c2ccc(OC)cc2)S(=O)(=O)c2ccc3c(c2)n(C)c(=O)n3C)cc1 | inactive: -1.96%
